The record followed here is patent US20230322953A1 (HARBOUR BIOMED SHANGHAI, published 2023).

Usually EC50 stands for the concentration at which the effect is half-maximal. Read a high EC50 as a need for much substance.

Assay [1] concerns the target T1, human 4-1BB (human, UniProt Q07011 24-255).
T1 construct: whole, on cells; also called CD137; TNFRSF9
Nature of the assay: flow cytometry, CHO-K1/hu 4-1BB cells, after incubation in human serum at 37 C, day two. For orientation: Flow cytometry measures light scatter and fluorescence of single cells or particles in a stream.

In assay [2] the target is T1, human 4-1BB. Nature of the assay: flow cytometry, CHO-K1/hu 4-1BB cells, after incubation in human serum at 37 C, day four.
T1 sequence (Q07011 24-255): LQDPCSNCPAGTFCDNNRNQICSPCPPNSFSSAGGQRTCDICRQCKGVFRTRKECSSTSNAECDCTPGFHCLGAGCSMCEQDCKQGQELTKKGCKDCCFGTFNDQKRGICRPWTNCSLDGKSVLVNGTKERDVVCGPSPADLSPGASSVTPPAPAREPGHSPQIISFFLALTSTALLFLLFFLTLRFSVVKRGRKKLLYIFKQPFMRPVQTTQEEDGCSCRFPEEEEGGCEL
Assay [3] concerns the target T1, human 4-1BB. Nature of the assay: flow cytometry, CHO-K1/hu 4-1BB cells, after incubation in human serum at 37 C, day one.
Assay [4] has as its target T1, human 4-1BB. Nature of the assay: flow cytometry, CHO-K1/hu 4-1BB cells, after incubation in human serum at 37 C, day seven.
Assay [5] concerns the target T1, human 4-1BB. Nature of the assay: flow cytometry, CHO-K1/hu 4-1BB cells.
Assay [6] deals with T1, human 4-1BB. The assay can be described thus: flow cytometry, CHO-K1/hu 4-1BB cells, after incubation in human serum at 37 C, day fourteen.
In assay [7] the target is T1, human 4-1BB. The assay can be described thus: flow cytometry, CHO-K1/hu 4-1BB cells, after incubation in human serum at 37 C, day one. This is another data set of the same source.
In assay [8] the target is T1, human 4-1BB. Nature of the assay: flow cytometry, CHO-K1/hu 4-1BB cells, after incubation in human serum at 37 C, day four. This is another data set of the same source.
The target of assay [9] is T1, human 4-1BB. The assay can be described thus: flow cytometry, CHO-K1/hu 4-1BB cells, after incubation in human serum at 37 C, day fourteen. The source holds these as a separate data set.
In assay [10] the target is T1, human 4-1BB. The assay can be described thus: flow cytometry, CHO-K1/hu 4-1BB cells, after incubation in human serum at 37 C, day two. This is another data set of the same source.
The target in assay [11] is T1, human 4-1BB. The assay can be described thus: flow cytometry, CHO-K1/hu 4-1BB cells, after incubation in human serum at 37 C, day seven. This is another data set of the same source.

“And” between values parts separate entries of the source, which are not always exact repeats. Equal values may be shown once.

B1: PR003334 (bispecific antibody, human IgG1, kappa)
light: EIVMTQSPATLSVSPGERATLSCRASQSISSNLGWYQQKPGQAPRLLIYGASTRATGIPARFSGSGSGTEFTLTISSLQSEDFAVYYCQQYQSWPPLTFGGGTKVEIKRTVAAPSVFIFPPSDEQLKSGTASVVCLLNNFYPREAKVQWKVDNALQSGNSQESVTEQDSKDSTYSLSSTLTLSKADYEKHKVYACEVTHQGLSSPVTKSFNRGEC
heavy: QVQLVESGGGVVQPGRSLRLSCAASGFTFRSFGMHWVRQAPGKGLEWVAVISYDASNEYYADSVKGRFIISRDNSKDTLYLQMNSLRAGDTAVYYCAKGGGLRWYFAYWGQGTLVTVSSASTKGPSVFPLAPSSKSTSGGTAALGCLVKDYFPEPVTVSWNSGALTSGVHTFPAVLQSSGLYSLSSVVTVPSSSLGTQTYICNVNHKPSNTKVDKKV[human IgG1 Fc with changes not given here]EPKSSDKTHTPPPPPRTEVQLLESGGGLVQLGGSLRLSCAASGFTFSRYAMTWVRQAPEKGLEWVSSISGSGDDTYYGDSVKGRFTISRDNSQNTVYLQMNSLRAEDTAVYFCAKEKAGTTGDYYYNVDVWGQGTTVTVSS
notes: PR002408 IgG with PR001758 VH at C-terminus of heavy chain, linker H1_15-RT, human IgG1 (L234A, L235A); also called B7H4x4-1BB bispecific antibody, IgG-VH tetravalent symmetric structure (5)
B1: the EC50 in the assay with human 4-1BB [1] amounted to 0.769 nM; in the assay with human 4-1BB [2], 0.607 nM; with human 4-1BB [3], 0.841 nM; with human 4-1BB [4] it was 0.68 nM; with human 4-1BB [5], 0.483 nM; with human 4-1BB [6] it was 0.851 nM. For the same molecule, the “Maximum MFI” value in the assay with human 4-1BB [5] worked out at 163000.

B2: PR003335 (bispecific antibody, human IgG1, kappa)
light: B1 light
heavy: QVQLVESGGGVVQPGRSLRLSCAASGFTFRSFGMHWVRQAPGKGLEWVAVISYDASNEYYADSVKGRFIISRDNSKDTLYLQMNSLRAGDTAVYYCAKGGGLRWYFAYWGQGTLVTVSSASTKGPSVFPLAPSSKSTSGGTAALGCLVKDYFPEPVTVSWNSGALTSGVHTFPAVLQSSGLYSLSSVVTVPSSSLGTQTYICNVNHKPSNTKVDKKV[human IgG1 Fc with changes not given here]EPKSSDKTHTPPPPPRTEVQLVESGGGVVQPGGSLRLSCAASGFTFSNYAMTWVRQAPEKGLEWVSSISGSGVSTYYADSVKGRFTISRDNSKNTLYLQMTRLTAEDTAVYFCAKEGSSETDDHYYNVDVWGQGTTVTVSS
notes: PR002408 IgG with PR001760 VH at C-terminus of heavy chain, linker H1_15-RT, human IgG1 (L234A, L235A); also called B7H4x4-1BB bispecific antibody, IgG-VH tetravalent symmetric structure (5)
B2: the EC50 is 0.47 nM in the assay with human 4-1BB [7]; 0.624 nM with human 4-1BB [8]; 0.74 nM and 1.35 nM with human 4-1BB [5]; 0.561 nM with human 4-1BB [9]; 0.457 nM with human 4-1BB [10]; 0.82 nM with human 4-1BB [11].
